# Experimental data: ChEMBL document CHEMBL4888484, “Replenishing the malaria drug discovery pipeline: Screening and hit evaluation of the MMV Hit Generation Library 1 (HGL1) against asexual blood stage Plasmodium falciparum ,using a nano luciferase reporter read-out” (2022)
# The whole screen tested about 150,000 compounds, of which about 540 (0.36%) showed an effect of 50% or more. This is one part of the list.
# Test system: Plasmodium falciparum
# Assay: Primary screen in NF54 nanoGlo assay, in single point, at 2uM, 72h; a lower Z score goes with more inhibition
# Format: functional, Erythrocyte
# Details: timepoint 72 hour
Compound,% Inhibition,Z score
COCCOc1ncccc1C(=O)Nc1ccnc2ccnn12,-12%,1.82
COc1cc(-c2noc(C3CCCC3)n2)ccc1OCc1ccc(F)cc1F,-11%,1.32
O=C(Nc1ccc2c(c1)cc(C(=O)NCc1ccccc1)n2Cc1cccc(F)c1)c1ccccc1F,-2%,0.24
COC(=O)N1CCC[C@H]1C(=O)OCc1nnnn1-c1ccccc1,-5%,0.75
Cc1ccc([C@H](CNC(=O)c2cc(-c3ccc(C)c(C)c3)on2)N2CCOCC2)cc1,7%,-0.9
Cn1nc(C(=O)N2CCCCC3CCCCC32)cc1OC(F)F (stereo unspecified),-9%,1.21
Cc1cc(C(=O)Nc2ccc3[nH]ncc3c2)cs1,-14%,1.48
C[C@H]1CCCN(S(=O)(=O)NCc2ccnc(N3CCN(c4ccc(F)cc4)CC3)c2)C1,-7%,1.08
CC(C)Cc1ncc(CNC(=O)N2CCC(C(C)O)C2)s1 (stereo unspecified),-9%,1.18
CC(C)(NC(=O)Cn1cnnn1)c1cccs1,1%,-0.19
CC(=O)N(C)c1nc2ccccc2n(CC(=O)Nc2ccccc2Br)c1=O,-2%,0.35
O=C(Nc1ccc(-c2cccc(F)c2)c(F)c1)N[C@@]1(CO)CCOC1,15%,-1.68
CCc1ccc(C(=O)NCCNC(=O)C(C)C)o1,-7%,1.32
COCCN(C(=O)c1cn(-c2ccc(F)cc2)nn1)c1ccc(C#N)cc1,-8%,0.85
Cc1nc(C(=O)N2CCN(C)Cc3ccccc32)cs1,-19%,1.61
CCc1nc(C)c(C(=O)NCCc2nc3cc(C)ccc3[nH]2)o1,2%,-0.31
COc1ccc([C@H]2CC(=O)Nc3nc(N4CCCCC4)sc32)cc1OC,-28%,3.65
Cc1ccc([C@@H](C)CCNCc2ccc3nsnc3c2)o1,2%,-0.45
O=C(O)C1CCCC(C(=O)N2CCc3ccccc3C2)C1 (stereo unspecified),-13%,1.55
CC(C)(C)C1CNC(=O)C1C(=O)Nc1ccc(C(F)(F)F)cc1 (stereo unspecified),-3%,0.53
CCC/C=C/c1nccc(N2CCC[C@H](O)C2)n1,-9%,1.16

Compound,% Inhibition,Z score
Cc1cc2c(N3CCCC(C(=O)NC(C)c4ccc(C)c(C)c4)C3)nccc2s1 (stereo unspecified),-7%,1.2
C=CCCN1C(=O)N[C@@](C)(CCC)C1=O,-7%,0.79
C[C@H](NC(=O)CCc1ccccc1Cl)c1ccncc1,1%,-0.14
C[C@H](OC(=O)C1=CCCCCC1)C(N)=O,-2%,0.26
Cc1ccc2[nH]c3c(N4CCC5(CC4)OCCO5)ncnc3c2c1,-2%,0.35
COCCN1C(=O)c2ccc(Oc3ccc(Oc4ccc5c(c4)C(=O)N(CCOC)C5=O)cc3)cc2C1=O,-8%,0.93
Cc1ccc(=O)n(Cc2nsc(N(C)C)n2)n1,6%,-0.9
CCCCN(C)C(=O)COc1cc(C)nc(-c2ccc(Cl)cc2)n1,-9%,1.63
O=C1CCN(Cc2cc(Cl)c3c(c2)OCCCO3)CCN1,-28%,3.28
CC1CN(C(C)c2nc(-c3cccs3)no2)CC(C)O1 (stereo unspecified),-6%,1.02
CN1CC[C@H]2CC[C@@H](C1)N2Cc1cc2cc3c(cc2nc1-c1ccc(F)cc1)OCO3,-2%,0.23
O=C(NCc1ccc(Br)cc1)N1CCC2(C1)OCCO2,-13%,1.64
CC(C)Oc1ccc(NS(=O)(=O)CC(=O)N[C@@H](Cc2ccccc2)c2ccccc2)cc1,-4%,0.36
Cc1nc2ncnn2c(Oc2ccc(-c3ccccc3)cc2)c1C,-15%,1.8
O=C(Nc1nc(C2CC2)cs1)NC1CCN(C2CCCC2)CC1,1%,-0.26
Cc1cccc(Oc2c(CCC(=O)NCCN3CCCC3)c(C)nn2-c2cccc(C)c2)c1,3%,-0.39
Cc1nn(-c2ccccc2)c2ncc(S(=O)(=O)N3C[C@H](O)C(C)(C)C3)cc12,-3%,0.53
CC1CC(c2ccc(F)cc2)CN1C(=O)C(N)CCS(C)(=O)=O (stereo unspecified),-12%,1.5
COc1ccc(-c2nc(C3(NC(=O)C(F)(F)F)CC3)cs2)cc1,-7%,1.17
CC[C@H](C)N(Cc1ccc(OC)c(OS(=O)(=O)c2ccc(F)cc2)c1)C(=O)Nc1ccc(C(F)(F)F)cc1,-12%,1.1
CN(C)C(=O)N1CCN(Cc2noc(C3CCCC3)n2)[C@@H]2CS(=O)(=O)C[C@@H]21,0%,0.04

Compound,% Inhibition,Z score
O=C(C[C@@H]1O[C@H](CNS(=O)(=O)c2ccc(Cl)cc2)[C@@H](O)[C@H]1O)NC1CC1,32%,-3.58
CC1(C)C[C@@H](O)CCN(c2nnc(-c3ccccc3)s2)C1,-14%,1.84
O=C1N(CN2CCCCC2)c2ccccc2C12OCCCCO2,-20%,2.62
COCCn1c(=O)c2c(ncn2Cc2cccc(Cl)c2)n(-c2ccccc2C)c1=O,-7%,0.68
O=S(=O)(c1ccc(Oc2ccc(-c3nnco3)cc2)nc1)N1CCC(Cc2ccccc2)CC1,-17%,1.47
CCC(=O)N1c2ccc(S(=O)(=O)N3CCCCC3)cc2C[C@H]1C(=O)NCCCN1CCOCC1,-15%,1.97
O=C(c1nccn2ccnc12)N(Cc1ccncc1)CC1CCCCC1,-1%,0.11
Cc1nnc(CN(C(=O)c2sc(C)nc2C)C(C)(C)C)o1,4%,-0.45
COC(C)(C)C[C@H](C)Nc1ccnc(N(C)C)n1,15%,-1.88
CCC1(NC(=O)N(C)Cc2nc(C)c[nH]2)CCCC1,-5%,0.68
CC(C)OCc1noc(CN2CC(C)(C)O[C@H]3COC[C@@H]32)n1,-1%,0.16
Cc1cc(C(=O)NCC(=O)Nc2cn[nH]c2)no1,-9%,0.96
CCn1ccnc1C(=O)N1CCC[C@H](S(=O)(=O)N2CCc3ccccc32)C1,5%,-0.52
COc1ccc(N2C[C@@H](c3noc(-c4cc(F)cc(F)c4)n3)CC2=O)cc1,-13%,1.17
CCc1cc2c(N3CCOCC3)nc(-c3ccccc3)nc2s1,-26%,2.4
O=C(CCc1ccc(=O)[nH]c1)N1CCOCC12CCC2,-11%,1.64
Cc1nc[nH]c1-c1nccn1-c1cccc(N2CCNC2=O)c1,13%,-1.68
CCOC1CC(N(C)C(=O)C2CCN(C)C(=O)C2)C12CCCC2 (stereo unspecified),-2%,0.29
COc1ccc(CCNCC(=O)N2CCc3ccccc3C2)cc1OC,-2%,0.38
O=C(N[C@@H](CC1CC1)c1ccccc1)N1CC(N2CCCC2=O)C1,-18%,2.15
c1ccc2cc(-c3cn(CCCN4CCOCC4)nn3)ccc2c1,-5%,0.95

Compound,% Inhibition,Z score
COc1ccc2oc(CNC(=O)CCn3nnnc3C)nc2c1,-5%,0.95
O=S(=O)(O)c1cc(O)c2cc(Nc3ccccc3)ccc2c1,-9%,1.67
CC(=O)Nc1ccc(S(=O)(=O)[C@H]2CS(=O)(=O)C[C@@H]2NCc2cccc(C)c2)cc1,-8%,0.97
CCn1ccc2cc(-c3nc([C@H]4CCOC4)no3)ccc21,-16%,1.81
COC(=O)CN(C(=O)Cc1ccc(C)nc1)c1cccc(F)c1,-14%,1.89
O=C(Cn1cccnc1=O)NCc1ccc2c(c1)OCO2,-4%,0.5
Cc1ccc(-c2nnc3c4ccc(Cl)cc4nc(N4CCN(C(=O)C5CCC5)[C@@H](C)C4)n23)cc1,-11%,1.66
CNC(=O)CCC(C)(C)Nc1nccnc1OC,5%,-0.51
CC(C)(C)C1CCC2(CC1)[C@H](C(=O)c1ccc(F)cc1)C2(C#N)C#N (stereo partly specified),-14%,2.04
N#Cc1ccc(OCCN(CCOc2ccc(C#N)cc2)CCn2cccn2)cc1,-17%,1.54
Cc1cc(C)n2nc(C(=O)Nc3c(C)cccc3C)c(-c3ccc(C)c(S(=O)(=O)N4CCCC4)c3)c2n1,-11%,1.07
COc1cc(OC)cc(C2(O)CCN(Cc3ccon3)CC2)c1,-13%,1.8
CC(=O)N(CCN1CCOCC1)CC(=O)N1CCCN(c2ccc(-c3ccccc3)nn2)CC1,-5%,0.86
C#CCOC[C@@H](O)CN(Cc1ccc(F)cc1)Cc1ccc(F)cc1F,-10%,1.47
C[C@H](NS(=O)(=O)N1CCCCC1)c1cnn(C)c1,-13%,1.16
NC(=O)[C@H]1CC=CC[C@@H]1NC(=O)c1ccccc1-n1cnnc1,-1%,0.1
CN(CC(=O)NC(=O)NC1CCCC1)Cc1ccco1,-2%,0.37
Cc1oc(-c2ccccc2)nc1CN(Cc1ccccn1)C(C)C,-4%,0.73
Cc1ccc(Cn2c(=O)c(C(=O)N[C@@H](C)c3ccccc3)nn(-c3cccc(F)c3)c2=O)cc1,-2%,0.27
COc1ccc(CN2C(=O)N[C@@H](CC(=O)Nc3nc(C)cs3)C2=O)cc1,2%,-0.3
